# From the supplement of paper PMC8728848
# This is one part of the list.
# Key:
# Assay in all cases: glycan array binding signal (z-score within array); higher = stronger binding
# Conditions in all cases: glycan notation: IUPAC condensed, linker removed; mutation: K176L
# [1] = target: Neu5Ac(a2-3)Gal6S(b1-4)[Fuc(a1-3)]GlcNAc
# Outline: (§1)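 The binding signal is a Z-score computed within each array. Data were drawn from 3228 arrays in the Consortium for Functional Glycomics database, restricted to those with a known protein sequence. Scores were averaged over arrays of the same protein sequence at different concentrations or buffers, and over linkers, and negative values can be taken as non-binding.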
# Neu5Ac(a2-3)GalNAc = target: Neu5Ac(a2-3)GalNAc
# Outline: as §1
# [2] = target: Neu5Ac(a2-3)GalNAc(b1-4)GlcNAc
# Outline: as §1
# [3] = target: Neu5Ac(a2-3)[GalNAc(b1-4)]Gal(b1-4)Glc
# Outline: as §1
# [4] = target: Neu5Ac(a2-3)[GalNAc(b1-4)]Gal(b1-4)GlcNAc
# Outline: as §1
# [5] = target: Neu5Ac(a2-3)[GalNAc(b1-4)]Gal(b1-4)GlcNAc(b1-3)GalNAc
# Outline: as §1
# [6] = target: Neu5Ac(a2-3)[Neu5Ac(a2-6)]GalNAc
# Outline: as §1
# Neu5Ac(a2-6)Gal = target: Neu5Ac(a2-6)Gal
# Outline: as §1
# Neu5Ac(a2-6)Gal(b1-4)Glc = target: Neu5Ac(a2-6)Gal(b1-4)Glc
# Outline: as §1
# [7] = target: Neu5Ac(a2-6)Gal(b1-4)GlcNAc
# Outline: as §1
# [8] = target: Neu5Ac(a2-6)Gal(b1-4)GlcNAc(b1-2)Man(a1-3)Man(b1-4)GlcNAc(b1-4)GlcNAc
# Outline: as §1
# [9] = target: Neu5Ac(a2-6)Gal(b1-4)GlcNAc(b1-2)Man(a1-3)[Gal(b1-4)GlcNAc(b1-2)Man(a1-6)]Man(b1-4)GlcNAc(b1-4)GlcNAc
# Outline: as §1
# [10] = target: Neu5Ac(a2-6)Gal(b1-4)GlcNAc(b1-2)Man(a1-3)[GlcNAc(b1-2)Man(a1-6)]Man(b1-4)GlcNAc(b1-4)GlcNAc
# Outline: as §1
# [11] = target: Neu5Ac(a2-6)Gal(b1-4)GlcNAc(b1-2)Man(a1-3)[GlcNAc(b1-2)Man(b1-4)GlcNAc(b1-2)Man(a1-6)]Man(b1-4)GlcNAc(b1-4)GlcNAc
# Outline: as §1
# [12] = target: Neu5Ac(a2-6)Gal(b1-4)GlcNAc(b1-2)Man(a1-3)[Man(a1-6)]Man(b1-4)GlcNAc(b1-4)GlcNAc
# Outline: as §1
# [13] = target: Neu5Ac(a2-6)Gal(b1-4)GlcNAc(b1-2)Man(a1-3)[Neu5Ac(a2-6)Gal(b1-4)GlcNAc(b1-2)Man(a1-6)]Man(b1-4)GlcNAc(b1-4)GlcNAc
# Outline: as §1
# [14] = target: Neu5Ac(a2-6)Gal(b1-4)GlcNAc(b1-2)Man(a1-6)Man(b1-4)GlcNAc(b1-4)GlcNAc
# Outline: as §1
# [15] = target: Neu5Ac(a2-6)Gal(b1-4)GlcNAc(b1-2)Man(a1-6)[Gal(b1-4)GlcNAc(b1-2)Man(a1-3)]Man(b1-4)GlcNAc(b1-4)GlcNAc
# Outline: as §1
# [16] = target: Neu5Ac(a2-6)Gal(b1-4)GlcNAc(b1-2)Man(a1-6)[GlcNAc(b1-2)Man(a1-3)]Man(b1-4)GlcNAc(b1-4)GlcNAc
# Outline: as §1
# [17] = target: Neu5Ac(a2-6)Gal(b1-4)GlcNAc(b1-2)Man(a1-6)[Man(a1-3)]Man(b1-4)GlcNAc(b1-4)GlcNAc
# Outline: as §1
# [18] = target: Neu5Ac(a2-6)Gal(b1-4)GlcNAc(b1-3)Gal(b1-3)GlcNAc
# Outline: as §1
# [19] = target: Neu5Ac(a2-6)Gal(b1-4)GlcNAc(b1-3)Gal(b1-4)GlcNAc
# Outline: as §1
# [20] = target: Neu5Ac(a2-6)Gal(b1-4)GlcNAc(b1-3)Gal(b1-4)GlcNAc(b1-3)Gal(b1-4)GlcNAc
# Outline: as §1
# [21] = target: Neu5Ac(a2-6)Gal(b1-4)GlcNAc(b1-3)Gal(b1-4)[Fuc(a1-3)]GlcNAc(b1-3)Gal(b1-4)[Fuc(a1-3)]GlcNAc
# Outline: as §1
# [22] = target: Neu5Ac(a2-6)Gal(b1-4)GlcNAc(b1-3)GalNAc
# Outline: as §1
# [23] = target: Neu5Ac(a2-6)Gal(b1-4)GlcNAc6S
# Outline: as §1
# Neu5Ac(a2-6)GalNAc = target: Neu5Ac(a2-6)GalNAc
# Outline: as §1
# [24] = target: Neu5Ac(a2-6)GalNAc(b1-4)GlcNAc
# Outline: as §1
# [25] = target: Neu5Ac(a2-6)GlcNAc(b1-4)GlcNAc
# Outline: as §1
# [26] = target: Neu5Ac(a2-6)GlcNAc(b1-4)GlcNAc(b1-4)GlcNAc
# Outline: as §1
# Neu5Ac(a2-8)Neu5Ac = target: Neu5Ac(a2-8)Neu5Ac
# Outline: as §1
# [27] = target: Neu5Ac(a2-8)Neu5Ac(a2-3)Gal(b1-4)Glc
# Outline: as §1
# [28] = target: Neu5Ac(a2-8)Neu5Ac(a2-3)[GalNAc(b1-4)]Gal(b1-4)Glc
# Outline: as §1
# [29] = target: Neu5Ac(a2-8)Neu5Ac(a2-8)Neu5Ac
# Outline: as §1
# [30] = target: Neu5Ac(a2-8)Neu5Ac(a2-8)Neu5Ac(a2-3)Gal(b1-4)Glc
# Outline: as §1
# [31] = target: Neu5Ac(a2-8)Neu5Ac(a2-8)Neu5Ac(a2-3)[GalNAc(b1-4)]Gal(b1-4)Glc
# Outline: as §1
# [32] = target: Neu5Ac(a2-8)Neu5Ac(a2-8)Neu5Ac(a2-8)Neu5Ac(a2-3)[GalNAc(b1-4)]Gal(b1-4)Glc
# Outline: as §1
# [33] = target: Neu5Ac(b2-6)Gal(b1-4)GlcNAc
# Outline: as §1
# Neu5Ac(b2-6)GalNAc = target: Neu5Ac(b2-6)GalNAc
# Outline: as §1
# [34] = target: Neu5Ac9Ac(a2-3)Gal(b1-3)GlcNAc
# Outline: as §1
# [35] = target: Neu5Ac9Ac(a2-3)Gal(b1-4)GlcNAc
# Outline: as §1
# [36] = target: Neu5Ac9Ac(a2-6)Gal(b1-4)GlcNAc
# Outline: as §1
# [37] = target: Neu5Gc(a2-3)Gal(b1-3)GlcNAc
# Outline: as §1
# [38] = target: Neu5Gc(a2-3)Gal(b1-3)[Fuc(a1-4)]GlcNAc
# Outline: as §1
# Neu5Gc(a2-3)Gal(b1-4)Glc = target: Neu5Gc(a2-3)Gal(b1-4)Glc
# Outline: as §1
# [39] = target: Neu5Gc(a2-3)Gal(b1-4)GlcNAc
# Outline: as §1
# [40] = target: Neu5Gc(a2-3)Gal(b1-4)[Fuc(a1-3)]GlcNAc
# Outline: as §1
# [41] = target: Neu5Gc(a2-6)Gal(b1-4)GlcNAc
# Outline: as §1
# Neu5Gc(a2-6)GalNAc = target: Neu5Gc(a2-6)GalNAc
# Outline: as §1
# [42] = target: Neu5Gc(b2-6)Gal(b1-4)GlcNAc
# Outline: as §1
binder,measurement,setting,value
"Gal 3 (Homo sapiens), P17931 (protein) MADNFSLHDALSGSGNPNPQGWPGAWGNQPAGAGGYPGASYPGAYPGQAPPGAYPGQAPPGAYHGAPGAYPGAPAPGVYPGPPSGPGAYPSSGQPSAPGAYPATGPYGAPAGPLIVPYNLPLPGGVVPRMLITILGTVKPNANILDFQRGNDVAFHFNPRFNENNRRVIVCNTLLDNNWGREERQSVFPFESGKPFKIQVLVEPDHFKVAVNDAHLLQYNHRVKKLNEISKLGISGDIDLTSASYTMI",glycan array binding signal (z-score),[1],-0.269
same,glycan array binding signal (z-score),Neu5Ac(a2-3)GalNAc,-0.263
same,glycan array binding signal (z-score),[2],-0.263
same,glycan array binding signal (z-score),[3],-0.27
same,glycan array binding signal (z-score),[4],-0.266
same,glycan array binding signal (z-score),[5],-0.271
same,glycan array binding signal (z-score),[6],-0.27
same,glycan array binding signal (z-score),Neu5Ac(a2-6)Gal,-0.26
same,glycan array binding signal (z-score),Neu5Ac(a2-6)Gal(b1-4)Glc,-0.269
same,glycan array binding signal (z-score),[7],-0.268
same,glycan array binding signal (z-score),[8],-0.266
same,glycan array binding signal (z-score),[9],-0.267
same,glycan array binding signal (z-score),[10],-0.267
same,glycan array binding signal (z-score),[11],-0.258
same,glycan array binding signal (z-score),[12],-0.268
same,glycan array binding signal (z-score),[13],-0.262
same,glycan array binding signal (z-score),[14],-0.268
same,glycan array binding signal (z-score),[15],-0.267
same,glycan array binding signal (z-score),[16],-0.272
same,glycan array binding signal (z-score),[17],-0.271
same,glycan array binding signal (z-score),[18],2
same,glycan array binding signal (z-score),[19],1.53
same,glycan array binding signal (z-score),[20],3.04
same,glycan array binding signal (z-score),[21],-0.268
same,glycan array binding signal (z-score),[22],-0.255
same,glycan array binding signal (z-score),[23],-0.262
same,glycan array binding signal (z-score),Neu5Ac(a2-6)GalNAc,-0.271
same,glycan array binding signal (z-score),[24],-0.272
same,glycan array binding signal (z-score),[25],-0.268
same,glycan array binding signal (z-score),[26],-0.269
same,glycan array binding signal (z-score),Neu5Ac(a2-8)Neu5Ac,-0.27
same,glycan array binding signal (z-score),[27],-0.271
same,glycan array binding signal (z-score),[28],-0.261
same,glycan array binding signal (z-score),[29],-0.272
same,glycan array binding signal (z-score),[30],-0.265
same,glycan array binding signal (z-score),[31],-0.263
same,glycan array binding signal (z-score),[32],-0.269
same,glycan array binding signal (z-score),[33],-0.266
same,glycan array binding signal (z-score),Neu5Ac(b2-6)GalNAc,-0.265
same,glycan array binding signal (z-score),[34],-0.274
same,glycan array binding signal (z-score),[35],-0.267
same,glycan array binding signal (z-score),[36],-0.266
same,glycan array binding signal (z-score),[37],-0.263
same,glycan array binding signal (z-score),[38],-0.272
same,glycan array binding signal (z-score),Neu5Gc(a2-3)Gal(b1-4)Glc,-0.27
same,glycan array binding signal (z-score),[39],-0.27
same,glycan array binding signal (z-score),[40],-0.267
same,glycan array binding signal (z-score),[41],-0.27
same,glycan array binding signal (z-score),Neu5Gc(a2-6)GalNAc,-0.265
same,glycan array binding signal (z-score),[42],-0.264
